Paper PMC4336329 (PLoS ONE, 2015)
Out of some 310,000 compounds screened, about 2,200 (0.71%) showed an effect of 50% or more. The effect is printed as a negative number. The list shows a part of the results.

These compounds were tested against human ether-à-go-go-related gene (hERG) potassium channel (human, UniProt Q12809) (assay: primary screen, population patch clamp on CHO cells stably expressing hERG).
human ether-à-go-go-related gene (hERG) potassium channel, sequence (Q12809 whole entry, looked up): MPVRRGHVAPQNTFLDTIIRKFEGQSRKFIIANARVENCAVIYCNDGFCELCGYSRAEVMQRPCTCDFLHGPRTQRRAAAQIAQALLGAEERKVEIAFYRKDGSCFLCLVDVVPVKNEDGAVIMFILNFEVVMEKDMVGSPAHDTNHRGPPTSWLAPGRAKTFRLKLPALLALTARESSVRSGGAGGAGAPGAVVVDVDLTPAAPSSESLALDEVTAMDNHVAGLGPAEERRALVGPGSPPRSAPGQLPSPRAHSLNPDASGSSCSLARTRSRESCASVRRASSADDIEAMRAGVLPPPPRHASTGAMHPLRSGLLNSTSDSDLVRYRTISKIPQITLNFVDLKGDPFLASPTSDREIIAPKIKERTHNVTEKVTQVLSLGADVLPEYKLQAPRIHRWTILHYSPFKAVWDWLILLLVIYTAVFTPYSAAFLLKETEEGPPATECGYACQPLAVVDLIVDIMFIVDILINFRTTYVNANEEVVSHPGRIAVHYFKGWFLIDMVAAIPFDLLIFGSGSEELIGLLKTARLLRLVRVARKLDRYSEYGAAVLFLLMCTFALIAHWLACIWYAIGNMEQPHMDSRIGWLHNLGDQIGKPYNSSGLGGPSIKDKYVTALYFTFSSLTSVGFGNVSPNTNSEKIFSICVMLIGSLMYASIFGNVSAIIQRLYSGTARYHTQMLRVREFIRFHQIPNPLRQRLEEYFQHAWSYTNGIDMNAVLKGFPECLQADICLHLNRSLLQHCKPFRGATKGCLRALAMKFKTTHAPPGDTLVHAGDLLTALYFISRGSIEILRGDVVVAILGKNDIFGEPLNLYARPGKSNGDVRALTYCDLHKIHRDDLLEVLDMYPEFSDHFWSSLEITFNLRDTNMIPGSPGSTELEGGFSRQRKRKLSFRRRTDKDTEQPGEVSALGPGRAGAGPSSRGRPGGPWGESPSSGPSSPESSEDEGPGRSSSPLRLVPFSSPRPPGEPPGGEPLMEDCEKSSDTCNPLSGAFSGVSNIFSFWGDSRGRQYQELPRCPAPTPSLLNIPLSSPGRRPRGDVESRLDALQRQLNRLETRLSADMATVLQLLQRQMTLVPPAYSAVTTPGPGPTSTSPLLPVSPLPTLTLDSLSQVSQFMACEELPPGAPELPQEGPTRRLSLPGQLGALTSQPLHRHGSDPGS

SMILES	hERG current change (%, negative = inhibition) at 1uM [%]
CCc1ccc(Nc2cc(C(=O)NCCCN3CCOCC3)c3ccccc3n2)cc1	6.33
CCC(=O)/C=C1/Sc2ccccc2N1CC	10.1
COc1ccc(-n2c(Cc3cccn3C)nnc2SCC(=O)Nc2ccc(C)c(Cl)c2)cc1	-12.1
CN(C1CCS(=O)(=O)C1)S(=O)C12CC3CC(CC(C3)C1)C2 (stereo not drawn)	18.1
COC(=O)C1(C)NC(c2ccccc2F)C2C(=O)N(c3ccccc3)C(=O)C21 (stereo not drawn)	13.3
NC(=O)C1(N2CCCCC2)CCN(C(=O)NC2CCCCC2)CC1	8.49
CCn1c(Cc2c(C)[nH]c3ccccc23)nnc1SCC(=O)NCc1ccccc1	14.7
COCCNC(=O)/C(C#N)=C1\N=C(NC(=O)c2cccs2)c2ccccc21	-2.07
COc1cc(CC(CC(=O)O)CC(C)OCc2ccccc2)cc(OC)c1 (stereo not drawn)	13.6
O=Nc1c(O)n(Cc2ccc(Cl)cc2)c2ccccc12	13.3
O=C(O)c1ccc(Sc2ccccn2)c([N+](=O)[O-])c1	11.9
COc1ccc(N2CCN(C(=O)COC(=O)c3cccc(S(=O)(=O)Nc4cccc(C)c4)c3)CC2)cc1	9.12
Cc1cc(C)nc(CCNC(=O)c2cc(COc3ccc(F)cc3F)on2)n1	-6.46
CC(=O)Nc1cccc(-c2csc(Nc3ccc(C)cn3)n2)c1	1.43
Cc1ccc(S(=O)(=O)NCCSC(C)(C)C)cc1	-0.833
COc1ccc(C2CC(C(F)(F)F)n3nc(C(=O)NCc4cn(C)nc4C)c(Cl)c3N2)cc1 (stereo not drawn)	14.3
OC(CCCN1CCC(O)(c2ccc(Cl)cc2)CC1)c1ccc(F)cc1 (stereo not drawn)	-72.7
N#Cc1ccc(CSc2nnc(-c3ccncc3)n2CCc2ccccc2)cc1	-78.2
CCN(CC(=O)Nc1ccc(OC)cc1)C(=O)c1cc2c(s1)CCCCC2	11.2
O=C(O)C1CN(c2ncccc2[N+](=O)[O-])C1	13.4
N/C(=N\OC(=O)c1ccc(F)cc1)c1cccc([N+](=O)[O-])c1	17.5
O=C(N/N=C/c1ccncc1)c1ccc(OCc2ccccc2)cc1	11.2
O=C(NCCCN1CCCCCC1)C1CC(=O)N(C2CCCC2)C1 (stereo not drawn)	1.87

SMILES	hERG current change (%, negative = inhibition) at 1uM [%]
Cc1ccc(NC(=S)c2ccncc2)c(C)c1	12.4
N#CC1=C(N)Oc2c(O)cc3ccccc3c2C1c1ccsc1 (stereo not drawn)	9.46
CCOc1cc(C2C(C#N)=C(N)OC(C)=C2C(C)=O)cc(Br)c1O (stereo not drawn)	10.2
O=C(COC(=O)c1ccc(O)cc1O)Nc1ccc2ccccc2c1	12.4
COc1ccc(S(=O)(=O)N2CCC(CN3C(=O)c4cccc5cccc(c45)C3=O)CC2)cc1	4.97
CC(C)C[C@H](NC(=O)c1[nH]cnc1C(=O)N[C@@H](C)C(=O)OC(C)(C)C)C(=O)OCc1ccccc1	9.98
COc1ccc(NS(=O)(=O)c2ccc3c(c2)CCO3)cc1	9.57
Cn1c(=O)[nH]c(=O)c2c1nc(SCCN1CCOCC1)n2CCCc1ccccc1	-6.15
Cc1ccc(CNC(=O)C2CNc3cc(C)ccc3O2)cc1 (stereo not drawn)	3.24
CCCOc1ccc2ccccc2c1/C=N/n1cnnc1	1.21
CCN(CC)CCOC(=O)c1ccc(NC(=O)C(C)NC(=O)C23CC4CC(CC(C4)C2)C3)cc1 (stereo not drawn)	6.42
Cc1ccc2c(c1)C1CN(C)CCC1N2C(=O)c1cccnc1Cl.Cl (stereo not drawn)	11.9
CC1CC(C)CN(c2ccc([N+](=O)[O-])cc2-c2nn[nH]n2)C1 (stereo not drawn)	2.23
CC1(c2ccc3ccccc3c2)NC(=O)N(CC(=O)NCc2cccs2)C1=O (stereo not drawn)	8.16
CC(=O)c1cccc(-c2ccc3c(=O)[nH]c(Nc4ccccc4)cc3c2)c1	12.3
CC(=O)C1=C(NC(=O)c2ccc(F)cc2)CC2C1C2(C)C (stereo not drawn)	9.7
COc1ccc(CNC(=O)C(=O)NCC2OCCN2S(=O)(=O)c2cccs2)cc1 (stereo not drawn)	6.38
S=c1[nH]ncc2ccccc12	9.69
CCCn1c(N2CCN(C(=O)/C=C/C(=O)O)CC2)nc2ccccc21	14.7
Cc1ccc2nc(N3CCN(Cc4nnnn4Cc4ccccc4)CC3)c(C#N)cc2c1	9.75
CC(=O)Nc1ccc(/C=C/C(=O)c2ccc3c(c2)OCCO3)cc1	7.26
COc1ccc(S(=O)(=O)N2CCCCCC2)cc1C(=O)OCc1cccc(OC)c1OC	13.7
CS(=O)(=O)NCCSCc1c(F)cccc1Cl	9.1

SMILES	hERG current change (%, negative = inhibition) at 1uM [%]
Cc1ccccc1-n1ncc(C(C)NC(=O)c2ccccc2)c1C (stereo not drawn)	1.01
O=C(CCC(=O)N1CCOc2ccccc21)N1CCOCC1	1.86
Cc1ccc(-c2nc(C#N)c(NCc3ccco3)o2)cc1	11.1
CCCn1c(C(C)Nc2nc(C)cs2)nc2cc(Cl)c(Cl)cc21 (stereo not drawn)	6.1
CC(C)(C)NC(=O)CCSc1nnc(-c2ccco2)o1	3.27
COc1cc(OC)cc(C(=O)NC2CCN(Cc3nnnn3Cc3ccc(F)cc3)CC2)c1	1.43
COc1ccc(Br)cc1/C=C/C(=O)NC(=S)Nc1ccc(CN2CCOCC2)cc1	13.9
Cc1cc(NC(=O)CSc2nc3cc(Cl)ccc3o2)no1	13.1
O=c1[nH]c(N2CCOCC2)nc2ccccc12	7.8
CCCN1CCC(N(CCc2ccccc2)Cc2ccccc2)CC1	-73.2
CCOC(=O)c1[nH]c(C(=O)O)c(CCN(CC)CC)c1C	12.6
Cc1c(C(=O)N2CCOCC2)c(S(=O)(=O)Nc2cccc(Br)c2)c(C)n1C	8.82
CCOc1ccc(S(=O)(=O)NN=C2CCN(C(C)=O)CC2)cc1	2.55
CCOC(=O)c1cccc(S(=O)(=O)N2CCOCC2)c1	16.7
O=S(=O)(Nc1ccccc1O)c1cccc2cccnc12	10.7
CC(C)=CCCC(C)NC(=O)NC1CCCCC1 (stereo not drawn)	2.42
S=C1NC2=C(CCC/C2=C\c2ccccc2)C(c2ccccc2)N1 (stereo not drawn)	12.8
COc1ccc(S(=O)(=O)Oc2ccc3ccccc3c2)cc1	10.7
O=C(Nc1ccccc1C(F)(F)F)N1CCC(N2CCCCC2)CC1	6.21
COCCN(C(=O)c1ccco1)c1nnc(-c2ccc(OC)c(OC)c2)s1	8.45
Cn1cc2cc(NC(N)=S)ccc2n1	12.6
CCc1ccc(C(=O)c2cncc(Br)c2)cc1	-0.414
COc1ccc(NC(=O)N2CCN(c3ccc([N+](=O)[O-])cc3)CC2)cc1OC	-63.2

SMILES	hERG current change (%, negative = inhibition) at 1uM [%]
Cc1cc(CC(C)C)n(-c2nc3ccccc3c(=O)n2OCC(N)=O)n1	-0.371
COc1cc(/C=C/C(=O)O)cc(S(=O)(=O)NCC2CCCO2)c1OC (stereo not drawn)	10.1
Cc1ccc(Cl)c(OCC(=O)Nc2cccnc2)c1	7.71
Cc1nn(C(C)C(=O)Nc2ccc3c(c2)OCO3)c(C)c1[N+](=O)[O-] (stereo not drawn)	-1.75
COc1cc(NC(=O)COC(=O)CO/N=C(\C)c2ccc3c(c2)OCO3)cc(OC)c1	15.6
CN(C)c1cc(N/N=C/c2ccccc2C(F)(F)F)nc(N(C)C)n1	1.88
COc1cccc(-n2c(Cc3cc(=O)[nH]c(=O)[nH]3)nnc2SCC(=O)NC2CCCC2)c1	11.9
O=C(c1ccncc1)N1CCN(S(=O)(=O)c2cc(C(F)(F)F)cc(C(F)(F)F)c2)CC1	0.128
COc1ccc(NC(=O)COC(=O)CCCOc2ccc(Cl)cc2Cl)cc1Cl	20.8
CC(C)=CCN1CCN(CCC2=C(C)CCCC2(C)C)CC1CCO (stereo not drawn)	-10.9
O=C(Nc1ccc(-c2nnn(CC(=O)N3CCN(C(=O)c4ccco4)CC3)n2)cc1)c1ccc(F)cc1	8.12
Cc1cccc(CSC2=NCCN2C(=O)c2ccc(Br)o2)c1	6.86
CC(=O)Nc1ccc(OC(=O)N2CCCCC2)cc1	-1.64
CCCC(=O)C1=C(O)C(c2cccc(Oc3ccccc3)c2)CCC1=O (stereo not drawn)	2.54
O=C(NCc1ccncc1)c1nc(-c2ccc(C(F)(F)F)cc2)no1	3.37
C=CCn1cc(C(=O)OC)c(=O)c2cc(S(=O)(=O)N3CCC(C)CC3)ccc21	-14.7
COc1ccc(NC(=O)COC(=O)CNC(=O)c2cc(OC)c(OC)c(OC)c2)cc1	11.5
CC1CCC(N2CCN(S(C)(=O)=O)CC2)CC1.O=C(O)C(=O)O (stereo not drawn)	14.8
CCCCCCCCC(=O)Nc1cc(C)ccc1OC	9.02
COC(=O)C(C)(C)NC(=O)c1cccs1	5.48
NC(=O)C1CCCN(CCc2ccccc2)C1 (stereo not drawn)	12.5
